# Data taken from the supplement of paper PMC8728848.
# The list shows a part of the results.
# Legend:
# Experiment in all cases: glycan array binding signal (z-score within array); higher = stronger binding
# Details in all cases: glycan notation: IUPAC condensed, linker removed
# [1] = molecular target: Neu5Ac(a2-3)Gal(b1-3)[Fuc(a1-4)]GlcNAc(b1-3)Gal(b1-3)[Fuc(a1-4)]GlcNAc
# How it was run: (§1)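 Arrays were curated from the Consortium for Functional Glycomics database, 3228 in total, and kept only where the protein sequence was available. Binding is expressed as a within-array Z-score. This score was averaged across arrays of the same protein sequence at different concentrations or buffers and across linkers, and negative values can be read as non-binding.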
# [2] = molecular target: Neu5Ac(a2-3)Gal(b1-3)[Fuc(a1-4)]GlcNAc(b1-3)Gal(b1-4)[Fuc(a1-3)]GlcNAc
# How it was run: as §1
# [3] = molecular target: Neu5Ac(a2-3)Gal(b1-3)[GlcNAc(b1-6)]GalNAc
# How it was run: as §1
# [4] = molecular target: Neu5Ac(a2-3)Gal(b1-3)[Neu5Ac(a2-6)]GalNAc
# How it was run: as §1
# [5] = molecular target: Neu5Ac(a2-3)Gal(b1-3)[Neu5Ac(a2-6)]GlcNAc(b1-3)[Fuc(a1-3)[Gal(b1-4)]GlcNAc(b1-6)]Gal(b1-4)Glc
# How it was run: as §1
# [6] = molecular target: Neu5Ac(a2-3)Gal(b1-3)]Neu5Ac(a2-3)Gal(b1-4)]GlcNAc
# How it was run: as §1
# Neu5Ac(a2-3)Gal(b1-4)Glc = molecular target: Neu5Ac(a2-3)Gal(b1-4)Glc
# How it was run: as §1
# [7] = molecular target: Neu5Ac(a2-3)Gal(b1-4)GlcNAc
# How it was run: as §1
# [8] = molecular target: Neu5Ac(a2-3)Gal(b1-4)GlcNAc(b1-2)Man
# How it was run: as §1
# [9] = molecular target: Neu5Ac(a2-3)Gal(b1-4)GlcNAc(b1-2)Man(a1-3)[GlcNAc(b1-4)][Neu5Ac(a2-3)Gal(b1-4)GlcNAc(b1-2)Man(a1-6)]Man(b1-4)GlcNAc(b1-4)GlcNAc
# How it was run: as §1
# [10] = molecular target: Neu5Ac(a2-3)Gal(b1-4)GlcNAc(b1-2)Man(a1-3)[Neu5Ac(a2-3)Gal(b1-4)GlcNAc(b1-2)Man(a1-6)]Man(b1-4)GlcNAc(b1-4)GlcNAc
# How it was run: as §1
# [11] = molecular target: Neu5Ac(a2-3)Gal(b1-4)GlcNAc(b1-2)Man(a1-3)[Neu5Ac(a2-3)Gal(b1-4)GlcNAc(b1-2)Man(a1-6)]Man(b1-4)GlcNAc(b1-4)[Fuc(a1-6)]GlcNAc
# How it was run: as §1
# [12] = molecular target: Neu5Ac(a2-3)Gal(b1-4)GlcNAc(b1-2)Man(a1-3)[Neu5Ac(a2-6)Gal(b1-4)GlcNAc(b1-2)Man(a1-6)]Man(b1-4)GlcNAc(b1-4)GlcNAc
# How it was run: as §1
# [13] = molecular target: Neu5Ac(a2-3)Gal(b1-4)GlcNAc(b1-2)[Neu5Ac(a2-3)Gal(b1-4)GlcNAc(b1-4)]Man(a1-3)[GlcNAc(b1-4)][Neu5Ac(a2-3)Gal(b1-4)GlcNAc(b1-2)[Neu5Ac(a2-3)Gal(b1-4)GlcNAc(b1-6)]Man(a1-6)]Man(b1-4)GlcNAc(b1-4)GlcNAc
# How it was run: as §1
# [14] = molecular target: Neu5Ac(a2-3)Gal(b1-4)GlcNAc(b1-2)[Neu5Ac(a2-3)Gal(b1-4)GlcNAc(b1-4)]Man(a1-3)[GlcNAc(b1-4)][Neu5Ac(a2-3)Gal(b1-4)GlcNAc(b1-4)Man(a1-6)]Man(b1-4)GlcNAc(b1-4)GlcNAc
# How it was run: as §1
# [15] = molecular target: Neu5Ac(a2-3)Gal(b1-4)GlcNAc(b1-2)[Neu5Ac(a2-3)Gal(b1-4)GlcNAc(b1-6)]Man(a1-6)[Neu5Ac(a2-3)Gal(b1-4)GlcNAc(b1-2)Man(a1-3)]Man(b1-4)GlcNAc(b1-4)GlcNAc
# How it was run: as §1
# [16] = molecular target: Neu5Ac(a2-3)Gal(b1-4)GlcNAc(b1-2)[Neu5Ac(a2-3)Gal(b1-4)GlcNAc(b1-6)]Man(a1-6)[Neu5Ac(a2-3)Gal(b1-4)GlcNAc(b1-2)Man(a1-3)][GlcNAc(b1-4)]Man(b1-4)GlcNAc(b1-4)GlcNAc
# How it was run: as §1
# [17] = molecular target: Neu5Ac(a2-3)Gal(b1-4)GlcNAc(b1-3)Gal
# How it was run: as §1
# [18] = molecular target: Neu5Ac(a2-3)Gal(b1-4)GlcNAc(b1-3)Gal(b1-3)GlcNAc
# How it was run: as §1
# [19] = molecular target: Neu5Ac(a2-3)Gal(b1-4)GlcNAc(b1-3)Gal(b1-4)GlcNAc
# How it was run: as §1
# [20] = molecular target: Neu5Ac(a2-3)Gal(b1-4)GlcNAc(b1-3)Gal(b1-4)GlcNAc(b1-2)Man(a1-3)[Neu5Ac(a2-3)Gal(b1-4)GlcNAc(b1-3)Gal(b1-4)GlcNAc(b1-2)Man(a1-6)]Man(b1-4)GlcNAc(b1-4)GlcNAc
# How it was run: as §1
# [21] = molecular target: Neu5Ac(a2-3)Gal(b1-4)GlcNAc(b1-3)Gal(b1-4)GlcNAc(b1-3)Gal(b1-4)GlcNAc
# How it was run: as §1
binder,measurement,setting,value
F17-L (Escherichia coli) (protein) GPDDYVPSQIAVNTSTLPGVVIGPADAHTYPRVIGELAGTSNQYVFNGGAIALMRGKFTPALPKIGSITYTFHQGNSRDSSDFDIYDIGVSGLGIIIGMAGYWPATPLVPINSSGIYIDPVGANTNPNTYNGATASFGARLFVAFVATGRLPNGYITIPTRQLGTILLEAKRTSLNNKGLTAPVMLNGGRIQVQSQTHHHHHH,glycan array binding signal (z-score),[1],0.431
same,glycan array binding signal (z-score),[2],0.865
same,glycan array binding signal (z-score),[3],-0.089
same,glycan array binding signal (z-score),[4],-0.109
same,glycan array binding signal (z-score),[5],-0.114
same,glycan array binding signal (z-score),[6],0.01
same,glycan array binding signal (z-score),Neu5Ac(a2-3)Gal(b1-4)Glc,0.383
same,glycan array binding signal (z-score),[7],-0.104
same,glycan array binding signal (z-score),[8],-0.024
same,glycan array binding signal (z-score),[9],-0.132
same,glycan array binding signal (z-score),[10],-0.186
same,glycan array binding signal (z-score),[11],-0.016
same,glycan array binding signal (z-score),[12],-0.145
same,glycan array binding signal (z-score),[13],-0.152
same,glycan array binding signal (z-score),[14],-0.155
same,glycan array binding signal (z-score),[15],-0.043
same,glycan array binding signal (z-score),[16],-0.058
same,glycan array binding signal (z-score),[17],-0.131
same,glycan array binding signal (z-score),[18],-0.166
same,glycan array binding signal (z-score),[19],-0.207
same,glycan array binding signal (z-score),[20],-0.12
same,glycan array binding signal (z-score),[21],0.099
